# Experimental data taken from PubChem BioAssay AID504832 (National Center for Advancing Translational Sciences (NCATS), 2011).
# Screen size: about 310,000 compounds; about 18,000 (5.8%) were called active. Inconclusive means that the source gave no clear call. Such entries were picked first, then a sample of the others. Calls follow the shape of the dose curve; as a rule, active = well fitted inhibition curve with a large enough effect; inconclusive = small, poorly fitted or top-dose-only effect, or another doubt; inactive = no such curve, though single readings can be large or run the other way. No potency is given beside an inconclusive call; the fits are too rough.
# Assay: Primary qHTS for delayed death inhibitors of the malarial parasite plastid, 48 hour incubation
# Conditions: P. falciparum luciferase growth in erythrocytes; series mostly up to 28.7 µM
# How it was run: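 First compound was added to culture medium, then infected red cells at 0.1% parasitemia and 2% hematocrit (final). After incubation at 37 C under 5% CO2, luciferase detection reagent was dispensed and light output recorded.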
# Potency is read from the fitted curve at half-maximal effect; tags tell the direction and shape of the fitted curve.
row,SMILES,Potency
1,O=C(COc1ccccc1)Nc1ccc(S(=O)(=O)Nc2ccccn2)cc1,inactive
2,COc1ccc(C(=O)N/N=C/c2c(CO)cnc(C)c2O)cc1,"inconclusive [inhibitor, single point]"
3,O=C(Nc1cccc(Cl)c1)OC1CCCCc2cccnc21 (stereo not drawn),active: 3.7 µM
4,O=C1CSC2(CCN(CCCN3c4ccccc4Sc4ccc(Cl)cc43)CC2)N1,"inconclusive [inhibitor, single point]"
5,CC(C)(C)OC(=O)N1CCC[C@H]1C(=O)N/N=C/c1ccc2ncccc2c1,"inconclusive [inhibitor, single point]"
6,O=C(CN(C1CCCCC1)S(=O)(=O)c1ccc(F)cc1)NCc1ccncc1,"inconclusive [inhibitor, partial curve, poor fit]"
7,CCOC(=O)N1C2C=C(C)[C@@H]2[C@@H]2CC(=O)N21 (stereo partly drawn),inactive
8,CCCCNC(=O)c1ccccc1NC(=O)CN(c1ccccc1)S(=O)(=O)N(C)C,"inconclusive [inhibitor, single point]"
9,Cc1ccc(-n2nnnc2SCC(=O)c2cc(C)n(CC3CCCO3)c2C)cc1 (stereo not drawn),"inconclusive [inhibitor, single point]"
10,C=CCN1C(=O)C(CC(=O)Nc2ccc(OC)cc2)N(Cc2ccco2)C1=S (stereo not drawn),inactive
11,COc1ccc(CNc2n[nH]c(NCc3ccc(OC)c(OC)c3)n2)cc1OC,"inconclusive [inhibitor, partial curve]"
12,CC(=O)NC(c1cc(F)c2cccnc2c1O)C(C)C (stereo not drawn),"inconclusive [inhibitor, single point]"
13,Cc1ccc2nc(N/C(=N/S(=O)(=O)c3ccc(F)cc3F)c3ccccc3)sc2c1,inactive
14,COc1cc(Cl)c(C)cc1NC(=S)NN,"inconclusive [inhibitor, single point]"
15,CC(C)CC1NC(=O)c2ccccc2-n2c1nc1ccc(F)cc1c2=O (stereo not drawn),inactive
16,CCN(C(=O)COC(=O)c1cc(S(=O)(=O)N2CCc3ccccc32)ccc1OC)C1CCS(=O)(=O)C1 (stereo not drawn),inactive
17,CCOc1ccccc1NS(=O)(=O)c1ccc2oc(=O)ccc2c1,inactive
18,O=C(NCCNC(=O)c1ccccc1)c1ccccc1,inactive
19,COc1ccc(NC(=O)c2ccc(NC(=O)CN(C)CC(=O)Nc3c(C)cccc3C)cc2)cc1,"inconclusive [inhibitor, single point]"
20,CC(=O)NNC(=O)c1sc(=S)n2c1[nH]c(=O)c1sccc12,inactive
21,Cc1ccc(S(=O)(=O)N(C)C)cc1NC(=O)COC(=O)CCC1CCCCC1,"inconclusive [inhibitor, partial curve, poor fit]"
22,COc1cc(/C(C)=N\NC(N)=S)cc(OC)c1OC,"inconclusive [inhibitor, single point]"
23,COc1ccc(OC)c(NC(=O)CSc2ccc3nnc(-c4ccccn4)n3n2)c1,"inconclusive [inhibitor, single point]"

row,SMILES,Potency
1,CC(C)COc1ccc(C(=O)OC2CC(C)(C)OCC2CN(C)C)cc1 (stereo not drawn),"inconclusive [inhibitor, single point]"
2,COc1ccc(OC)c(/C=N/NC(=O)CCN2CCN(C(c3ccccc3)c3ccccc3)CC2)c1,inactive
3,COc1ccc(S(=O)(=O)Nc2ccc(-n3cccc3)cc2)cc1,"inconclusive [inhibitor, single point]"
4,CC(=O)Nc1ccc(S(=O)(=O)NCCC(=O)OCc2csc(CC(=O)Nc3ccccc3C)n2)cc1,active: 11.7 µM
5,Cc1cc(C(=O)OCC(=O)Nc2ccc(F)cc2F)c(C)n1C1CC1,"inconclusive [inhibitor, single point]"
6,COc1cc(/C=C/C(=O)Nc2nnc(C(C)(C)C)s2)cc(OC)c1OC,"inconclusive [inhibitor, partial curve, poor fit]"
7,O=C(Cc1ccccc1)c1nc2ccccc2s1,"inconclusive [inhibitor, single point]"
8,Cc1cc(/C=N\NC(=O)COc2cccc3cccnc23)c(C)n1-c1ccc(Br)cc1,active: 5.86 µM
9,COC(=O)Cc1ccc(N(Cc2ccccc2F)S(=O)(=O)c2ccc(Cl)cc2)cc1,"inconclusive [inhibitor, single point]"
10,Cc1ccc(S(=O)(=O)N2CCCC(C(=O)Nc3ccc(NC(=O)c4ccccn4)cc3)C2)cc1 (stereo not drawn),"inconclusive [inhibitor, single point]"
11,COc1ccccc1-n1c(SCC(=O)NC2CC2)nc2ccccc2c1=O,"inconclusive [inhibitor, single point]"
12,CCCn1nnc(NC(=O)COc2ccc(C3CCCCC3)cc2)n1,"inconclusive [inhibitor, single point]"
13,COc1ccc(S(=O)(=O)N2CCOC23CCN(C(=O)c2c(F)cccc2Cl)CC3)cc1,"inconclusive [inhibitor, partial curve, poor fit]"
14,O=C(NCCN1CCCC1=O)C1CCC(=O)N(CCc2cccc(F)c2)C1 (stereo not drawn),inactive
15,O=C(CSc1nc2ccccc2c(=O)n1CC1CCCO1)Nc1ccccc1 (stereo not drawn),inactive
16,O=C1NC(=Nc2ccc(O)cc2)S/C1=C\C=C\c1ccco1,"inconclusive [inhibitor, full curve, poor fit]"
17,COc1ccc(NS(=O)(=O)c2ccc(F)c(F)c2F)cc1S(=O)(=O)N1CCOCC1,"inconclusive [inhibitor, single point]"
18,Cc1ccc(S(=O)(=O)/C(C#N)=C/c2c(N3CCN(Cc4ccccc4)CC3)nc3ccccn3c2=O)cc1,"inconclusive [inhibitor, single point]"
19,Cc1ccc(S(=O)(=O)N(C)C)cc1NC(=O)Nc1ccccc1,active: 4.15 µM
20,CC(C)(C)OC(=O)NCCCC[C@H](NC(=O)c1[nH]cnc1C(=O)Nc1ccccc1)C(=O)OC(C)(C)C,active: 4.65 µM
21,Nc1c(N(Cc2ccco2)C(=O)COc2ccccc2Cl)c(=O)[nH]c(=O)n1Cc1ccccc1,"inconclusive [inhibitor, single point]"
22,CN(C)c1ccc(C2N(C)C(=O)c3ccccc3N2C)cc1 (stereo not drawn),"inconclusive [inhibitor, full curve, poor fit]"
23,COc1cccc(CN2C(=O)C3CCCN3c3ccc(S(=O)(=O)N4CCOCC4)cc32)c1 (stereo not drawn),active: 1.04 µM

row,SMILES,Potency
1,O=S(=O)(Nc1nc2ccccc2nc1NCC1CCCO1)c1ccccc1 (stereo not drawn),inactive
2,Cc1ccc(NC2=C(Cl)C(=O)OC2NC(=O)c2ccccc2)cc1 (stereo not drawn),"inconclusive [inhibitor, partial curve]"
3,COc1ccccc1C(=O)Nc1c(C(=O)N2CCN(C)CC2)oc2ccccc12,"inconclusive [inhibitor, single point]"
4,CCOC(=O)CC(=O)CSc1nc2c(sc(=S)n2-c2ccc(OCC)cc2)c(=O)[nH]1,"inconclusive [inhibitor, single point]"
5,O=C(/C=C\N1CCOCC1)c1ccc(Br)cc1,inactive
6,CCOC(=O)C1(C)C=C(Nc2ccc(OC)cc2)C(=O)N1c1ccc(OC)cc1 (stereo not drawn),inactive
7,Cc1cccc(-c2noc(Cc3ccc(Cl)cc3)n2)c1,inactive
8,CCN(CC)S(=O)(=O)c1ccc2c(c1)nc(CCC(=O)Nc1ccccc1Cc1ccccc1)n2CC,active: 11.7 µM
9,COc1ccc(C(=O)N/C(=C\c2cccs2)c2nc3ccccc3[nH]2)cc1OC,"inconclusive [inhibitor, full curve, poor fit]"
10,O=C(O)[C@H]1CCCN1S(=O)(=O)c1cccc2cccnc12,"inconclusive [inhibitor, single point]"
11,CCOc1cc(/C=C2\SC(=N)N(c3nonc3N)C2=O)ccc1OCCN1CCOCC1,active: 1.31 µM
12,COC(=O)c1c(C)[nH]c(C(=O)/C=C/c2ccc(C)cc2)c1C,"inconclusive [inhibitor, full curve, poor fit]"
13,O=C(Nc1nc2c(s1)C(=O)CCC2)c1ccccc1,inactive
14,COc1cccc(OC)c1C(=O)Nc1nnc(-c2ccc(F)cc2)s1,inactive
15,COc1cc(C(c2c(C)[nH][nH]c2=O)c2c(C)[nH][nH]c2=O)ccc1OC(C)C,"inconclusive [inhibitor, partial curve]"
16,Cc1ccc(C(=O)COC(=O)C2CC3CCCC(C2)C3=O)cc1[N+](=O)[O-] (stereo not drawn),"inconclusive [inhibitor, single point]"
17,CC(C)OC(=O)c1cc2c(ccn2C)n1CC(=O)N(Cc1ccccc1)c1ccc(F)cc1,"inconclusive [inhibitor, single point]"
18,COc1ccc(-c2cc(C(=O)N3CCCC3)c3ccccc3n2)cc1OC,"inconclusive [inhibitor, partial curve]"
19,CCOC(=O)C1=C(C)NC2=C(C(=O)CC(C)(C)C2)C1c1ccc(O)c(OCC)c1 (stereo not drawn),"inconclusive [inhibitor, partial curve]"
20,CCOC(=O)c1c(NC(=O)COC(=O)c2nccnc2N)sc(C(=O)N(C)C)c1C,"inconclusive [inhibitor, single point]"
21,O=C(NNC1=C(C(=O)C(F)(F)F)CCC1)c1ccncc1,"inconclusive [inhibitor, single point]"
22,Cc1ccc(S(=O)(=O)N2CCOCC2)cc1NC(=O)CNCc1ccccc1Cl,"inconclusive [inhibitor, single point]"
